Assay results as given in IntAct's records for PubMed 18840636.

B1: Adrenocorticotropic hormone receptor (Homo sapiens), Q01718 (parent)
chain: MKHIINSYENINNTARNNSDCPRVVLPEEIFFTISIVGVLENLIVLLAVFKNKNLQAPMYFFICSLAISDMLGSLYKILENILIILRNMGYLKPRGSFETTADDIIDSLFVLSLLGSIFSLSVIAADRYITIFHALRYHSIVTMRRTVVVLTVIWTFCTGTGITMVIFSHHVPTVITFTSLFPLMLVFILCLYVHMFLLARSHTRKISTLPRANMKGAITLTILLGVFIFCWAPFVLHVLLMTFCPSNPYCACYMSLFQVNGMLIMCNAVIDPFIYAFRSPELRDAFKKMIFCSRYW
partner: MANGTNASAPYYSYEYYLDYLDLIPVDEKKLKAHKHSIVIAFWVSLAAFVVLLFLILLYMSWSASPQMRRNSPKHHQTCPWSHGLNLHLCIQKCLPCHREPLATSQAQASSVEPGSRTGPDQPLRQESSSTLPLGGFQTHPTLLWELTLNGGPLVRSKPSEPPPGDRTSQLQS

Variants of: B1
Conditions: with q8tcy5-1 MRAP

Effect of a mutation on the interaction, with no effect:
MKHIINSYENINNTARNNSDCPRVVLPEEIFFTISIVGVLENLIVLLAVFKNKNPQAPMYFFICSLAISDMLGSLYKILENILIILRNMGYLKPRGSFETTADDIIDSLFVLSLLGSIFSLSVIAADRYITIFHALRYHSIVTMRRTVVVLTVIWTFCTGTGITMVIFSHHVPTVITFTSLFPLMLVFILCLYVHMFLLARSHTRKISTLPRANMKGAITLTILLGVFIFCWAPFVLHVLLMTFCPSNPYCACYMSLFQVNGMLIMCNAVIDPFIYAFRSPELRDAFKKMIFCSRYW [L55P]
MKHIINSYENINNTARNNSDCPRVVLPEEIFFTISIVGVLENLIVLLAVFKNKNLQAPMYFFICSLAISDMLGSLYKILENILIILRNMGYLKPRGSFETTADDIIDSLFVLSLLGSIFSLSVIAADRYITIFHALWYHSIVTMRRTVVVLTVIWTFCTGTGITMVIFSHHVPTVITFTSLFPLMLVFILCLYVHMFLLARSHTRKISTLPRANMKGAITLTILLGVFIFCWAPFVLHVLLMTFCPSNPYCACYMSLFQVNGMLIMCNAVIDPFIYAFRSPELRDAFKKMIFCSRYW [R137W]
MKHIINSYENINNTARNNSDCPRVVLPEEIFFTISIVGVLENLIVLLAVFKNKNLQAPMYFFICSLAISDMLGSLYKILENILIILRNMGYLKPRGSFETTADDIIDSLFVLSLLGSIFSLSVIAADRYNTIFHALRYHSIVTMRRTVVVLTVIWTFCTGTGITMVIFSHHVPTVITFTSLFPLMLVFILCLYVHMFLLARSHTRKISTLPRANMKGAITLTILLGVFIFCWAPFVLHVLLMTFCPSNPYCACYMSLFQVNGMLIMCNAVIDPFIYAFRSPELRDAFKKMIFCSRYW [I130N]
MKHIINSYENINNTARNNSDCPRVVLPEEIFFTISIVGVLENLIVLLAVFKNKNLQAPMYFFICSLAISDMLGSLYKILENILIILRNMGYLKPRGSFETTADDIIDSLFVLSLLGSIFSLSVIAADRYITIFHALRYHSIVTMRRTVVVLTVIWTFCTGTGITMVIFSHHVPTVITFTSLFPLMLVFILCLYVHMFLLARSHTRKISTLPRANMKGAITLTILLRVFIFCWAPFVLHVLLMTFCPSNPYCACYMSLFQVNGMLIMCNAVIDPFIYAFRSPELRDAFKKMIFCSRYW [G226R]
